Source: PubChem BioAssay AID686979 (National Center for Advancing Translational Sciences (NCATS), 2013)
“And” between values parts separate entries of the source, which are not always exact repeats. Identical values can stand only once. Screen size: about 420,000 compounds; about 50,000 (12%) were called active. The inconclusive results got no clear call from the source; some entries with a clear call stand among them for comparison. Calls follow the shape of the dose curve; as a rule, active = well fitted inhibition curve with a large enough effect; inconclusive = small, poorly fitted or top-dose-only effect; inactive = flat fitted curve, though single readings scatter. Potencies of inconclusive entries are doubtful fits and often do not repeat.

test: qHTS for Inhibitors of human tyrosyl-DNA phosphodiesterase 1 (TDP1): qHTS in cells in presence of CPT; conditions: chicken DT40 Tdp1-/-;hTDP1 cells + 20 nM CPT, ATP luminescence, 48 h; activity change, negative = growth inhibition: at 46.2 µM (top of the series) unless noted; also: nearly all actives have a fitted effect of over 55% in size
In short: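 Cell growth measured by CellTiter-Glo luminescence after a minimum 48 h, 37 C compound exposure with 20 nM CPT in Tdp1-knockout DT40 cells stably expressing hTDP1, seeded 400/well; qHTS titration format.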
% is scaled to controls: 0 for no effect and ±100 for the full control effect; potency is read from the fitted curve at half-maximal effect; tags tell the direction and shape of the fitted curve.

Compound | Potency | activity change, negative = growth inhibition
Cn1cc(-c2nc3cncnc3n(CCN)c2=O)c2ccccc21 | active: 23.1 µM | 
CCCOc1ccc(C2=CSC3=NCCN23)cc1[N+](=O)[O-] | inconclusive: 29.1 µM [inhibitor, single point] | 
CCc1cc2c(-c3ccccc3)cc(=O)oc2c(CN2CCOCC2)c1O | inconclusive: 17.8 µM [inhibitor, partial curve, poor fit] | 
Oc1ccc2ccccc2c1/C=C/c1ccc2c(Br)cc(Br)c(O)c2n1 | active: 3.66 µM | 
CN=c1sc(C(=O)Nc2cccc(Cl)c2)cc(=O)n1C | inconclusive: 29.1 µM [inhibitor, single point] | 
COc1ccccc1-c1noc2c1C(=O)N(Cc1cn(Cc3ccccc3)nn1)CC2 |  | inconclusive: -31.9% [inhibitor]
CCC1CCCCN1C(=O)c1c(-c2ccccc2)noc1C (configuration not stated) | inconclusive: 29.1 µM [inhibitor, single point] | 
Cc1c(Cl)cccc1NC(=O)Cn1c(CCC(=O)O)ccc1-c1ccc(Cl)cc1 |  | inconclusive: -33.9% [inhibitor]
Cc1cc(C)cc(NC(=O)c2cnn(-c3ccccc3)c2C2CCNCC2)c1 | inconclusive: 20.6 µM [inhibitor, single point] | 
Cc1cc(C)cc(C(=O)NCc2nc(-c3cccc(NC(=O)c4ccccn4)c3)oc2C)c1 |  | inactive: -0.237% [at 9.04 µM]
COCc1[nH]nc2c1C1(CCSCC1)C(C#N)=C(N)O2 | inactive | 
COc1cccc(NS(=O)(=O)c2cc3c(cc2C)N(C(C)=O)CCO3)c1 | inconclusive: 20.6 µM [inhibitor, single point] | 
COc1ccc(C2/C=C\CN(C(=O)OCC3c4ccccc4-c4ccccc43)CC(=O)N2Cc2cccc(F)c2)cc1 (configuration not stated) | inconclusive: 18.4 µM [inhibitor, single point] | 
CCN(Cc1ccccc1)C(=O)Cn1ncc2c(=O)oc3ccc(C)cc3c21 | inactive | 
O=C(CCNS(=O)(=O)c1ccc2nsnc2c1)N1CCN(c2ccncc2)CC1 | inconclusive: 13 µM [inhibitor, partial curve] | 
COc1ccc(-c2nc(NC(=O)C3=NN(c4cccc(C)c4)C(=O)CC3)sc2C)cc1 | active: 23.1 µM | 
COc1ccc(NC(=S)NNC(=O)c2nnn(-c3ccccc3)c2C)cc1 | inactive | 
Cc1cccc(COc2ccccc2C(=O)N(C)CC(=O)Nc2cccc(F)c2)c1 | inconclusive: 29.1 µM [inhibitor, single point] | 
Cn1c(=O)c2cc(NC(=O)CCc3ccccc3)ccc2n1-c1ccccc1F | active: 11.6 µM | 
Cc1ccc(S(=O)(=O)C(CNS(=O)(=O)c2ccc(F)c(C(F)(F)F)c2)c2ccco2)cc1 (configuration not stated) | inconclusive: 29.1 µM [inhibitor, single point] | 
COc1ccccc1C(=O)COC(=O)CNS(=O)(=O)c1ccc(C)c(C)c1 | inactive | 
COc1ccc(N2C(=O)c3cc4ccccc4cc3C2=O)cc1 | inconclusive: 20.6 µM [inhibitor, single point] | 
Cc1ccc(NC(=O)CCS(=O)(=O)c2cccc3nonc23)c(Cl)c1 | inactive | 

Compound | Potency | activity change, negative = growth inhibition
COC(=O)[C@H]1C[C@H](OC(=O)NCc2ccc(OC)c(OC)c2)[C@@]2(O)CN(S(=O)(=O)c3ccc(C)cc3)CC2[C@H]1C(=O)OC (some centres not stated) | inactive | 
COc1ccccc1NC(=O)Cn1ccn(-c2cc(C)cc(C)c2)c(=O)c1=O | inactive | 
CC1=CC(C)(C)N2C(=O)C3(C(C#N)=C(N)OC4=C3C(=O)CC(C)(C)C4)c3c(C)c(C)cc1c32 (configuration not stated) | inconclusive: 29.1 µM [inhibitor, single point] | 
O=C(COC(=O)c1cc2c(s1)CCCCC2)NC1CCS(=O)(=O)C1 (configuration not stated) | inactive | 
CCC(C(=O)NC1CCCCC1)n1c(SCc2cccc(F)c2)nc2ccncc21 (configuration not stated) | inconclusive: 20.6 µM [inhibitor, single point] and inconclusive: 18.4 µM [inhibitor, single point] | 
Cc1cc(C(=O)OCC(=O)NC(C)C)c2ccccc2n1 | inconclusive: 16.4 µM [inhibitor, single point] | 
CC(Oc1ccc(F)cc1)C(=O)Nc1ccccc1N1CCCCC1 (configuration not stated) | inconclusive: 29.1 µM [inhibitor, single point] | 
O=C(NNc1c2ccccc2nc2ccccc12)c1cccc(O)c1 | inconclusive: 16.4 µM [inhibitor, single point] | 
O=S(=O)(NC1CCCCC1)c1ccc(N2CCOCC2)nc1 | inactive | 
Cc1ccc(NC(=O)CN(C)C(=O)c2ccc(C(F)(F)F)cc2)cc1 | inactive | 
N#CC1=C(N)Oc2n[nH]c(-c3ccccc3)c2C1c1ccsc1 (configuration not stated) | inconclusive: 14.6 µM [inhibitor, partial curve] | 
CC(=C/C(=O)O)/C=C/c1ccco1 | active: 6.51 µM | 
Cn1cnnc1SCC(=O)N1N=C(c2ccc(Cl)cc2)CC1c1ccco1 (configuration not stated) | inconclusive: 11.6 µM [inhibitor, partial curve] | 
CCOc1ccc(CNCc2c(C(=O)O)n(Cc3ccccc3C)c3cc(OC)ccc23)cc1OC | active: 0.651 µM | 
Cc1ccc(N(C(=O)C(F)(F)F)C(C(=O)NC2CCCCC2)c2ccncc2)cc1C (configuration not stated) | inconclusive: 29.1 µM [inhibitor, single point] | 
COc1ccc(S(=O)(=O)N2C[C@@H](O)COC[C@@H]3O[C@H](CC(=O)NCCCN4CCOCC4)CC[C@H]32)cc1 | inactive | 
CC(CNC(=O)C1CCN(C(=O)c2cc3sccc3n2C)CC1)c1ccccc1 (configuration not stated) | inconclusive: 29.1 µM [inhibitor, single point] | 
O=C1NC[C@@H](c2ccccc2)OC(=O)[C@@H](Cc2ccc(F)cc2)CC/C=C/C[C@@H]1CC(=O)N(CCO)Cc1ccccc1 | active: 16.4 µM | 
Cc1cc(C)cc(OCC(=O)Nc2cccc(-c3nnc(-c4ccco4)o3)c2)c1 | inconclusive: 23.1 µM [inhibitor, single point] | 
CCOC(=O)C1=CCC(c2cc3ccc(OC)cc3n2C(=O)OC(C)(C)C)NC1 (configuration not stated) | inconclusive: 23.1 µM [inhibitor, single point] | 
O=S(=O)(c1ccc(Br)s1)N1CCN(c2ccccc2)CC1 | inactive | 
CC(=O)Oc1ccccc1-n1c(C)nc(=O)c(-c2ccccc2)c1C | inactive | 
CC12CCC(=O)N1c1ccccc1C(=O)N2c1ccccc1 (configuration not stated) | inconclusive: 20.6 µM [inhibitor, partial curve, poor fit] | 

Compound | Potency | activity change, negative = growth inhibition
COc1cc(/C=C/C(=O)OCC(=O)Nc2oc(C)c3c(C)n[nH]c(=O)c23)ccc1OC(F)F | inconclusive: 13 µM [inhibitor, partial curve] | 
COc1ccc(NC(=O)C(C2CC2)n2c(=O)c(-c3cc4ccccc4[nH]3)nc3ccccc32)cc1 (configuration not stated) | active: 29.1 µM | 
Cc1c(C)n(C)c2ccc(C(=O)NCCc3ccco3)cc12 | inconclusive: 29.1 µM [inhibitor, single point] | 
O=C(Cc1ccc(-n2c(=O)c3ccccc3n(Cc3ccccc3Cl)c2=O)cc1)NCC1CCCO1 (configuration not stated) | inconclusive: 16.4 µM [inhibitor, partial curve] | 
Cc1ccc(Cl)cc1Nc1nn2c(=O)c3ccc(C(=O)NC(C)c4ccccc4)cc3nc2s1 (configuration not stated) | active: 6.51 µM | 
OCCCNc1ncnc2c1ncn2[C@H]1CN(Cc2ccncc2)C[C@@H](CO)O1 | inactive | 
COc1ccc(Cn2nnnc2C(c2cccs2)N2CCN(c3ccccc3)CC2)cc1 (configuration not stated) | inconclusive: 29.1 µM [inhibitor, single point] | 
COc1cc(O)c(C(CC(=O)N2CCOCC2)c2ccc3c(c2)OCO3)c(OC)c1 (configuration not stated) | inactive | 
CC1=NC(C#N)=C(C#N)NC(C)(C)C1 | inactive | 
COc1ccc(C2=Nn3c(nnc3-c3ccccn3)SC2)cc1 | inconclusive: 23.1 µM [inhibitor, single point] | 
O=C(CN1C(=O)NC(c2ccccc2)(c2ccccc2)C1=O)N1CCN(c2ccccc2F)CC1 | inconclusive: 29.1 µM [inhibitor, single point] | 
COc1ccccc1CNC(=O)CCc1c(C)nn(-c2ccc(N3CCCCC3)nn2)c1C | inconclusive: 29.1 µM [inhibitor, single point] | 
Cc1ccc(Cl)cc1N1CCN(C(=O)CCS(=O)(=O)c2ccc3c(c2)oc(=O)n3C)CC1 | inconclusive: 20.6 µM [inhibitor, single point] | 
Cc1cccc(CN2CCN(C(c3ccccc3)c3ccc(Cl)cc3)CC2)c1 (configuration not stated) | inconclusive: 12.8 µM [inhibitor, single point] and inconclusive: 20.6 µM [inhibitor, single point] and inconclusive: 18.4 µM [inhibitor, single point] | 
O=[N+]([O-])c1cc([N+](=O)[O-])c(Oc2cc(F)ccc2F)cc1NN1CCCCC1 | inconclusive: 29.1 µM [inhibitor, single point] | 
CC(N=Cc1cc([N+](=O)[O-])ccc1O)c1ccccc1 (configuration not stated) | inactive | 
COc1cccc(NC(=O)CN(C)C(=O)c2cc3ccccc3cc2OC)c1 | inconclusive: 14.6 µM [inhibitor, partial curve, poor fit] | 
CCc1ccc2c(c1)/C(=N/OC)C(=O)N2 | inconclusive: 16.4 µM [inhibitor, partial curve, poor fit] | 
COc1ccc(C(CNC(=O)c2ccc(-c3ccccc3Cl)o2)N2CCOCC2)cc1 (configuration not stated) | active: 23.1 µM | 
CCC1=NN(S(=O)(=O)c2ccc(C)cc2)C(O)(C(F)(F)F)C1 (configuration not stated) | inactive | 
Cc1nn(Cc2ccc(Cl)c(Cl)c2)c(C)c1NC(=O)c1cn(-c2ccccc2)nc1-c1ccccc1 | inconclusive: 29.1 µM [inhibitor, single point] | 
